According to PubChem BioAssay AID1460 (National Center for Advancing Translational Sciences (NCATS), 2008):
Several values for one entry are separate records, joined by “and”; a condition that tells them apart may be missing. Equal entries are not always repeated. Out of some 270,000 compounds screened, about 5,800 (2.1%) were called active. The shares of active, inactive and inconclusive entries below differ from those in the screen. The call rests on the fitted dose curve; in most records, active means well fitted inhibition curve with a large enough effect; inconclusive means small, poorly fitted or top-dose-only effect; inactive means flat fitted curve, though single readings scatter. A potency beside an inconclusive call is a rough fit, not a confirmed value.

The molecules below were run against Microtubule-associated protein tau (Homo sapiens) (UniProt P10636) (assay: qHTS for Inhibitors of Tau Fibril Formation, Thioflavin T Binding). Settings: recombinant tau K18 P301L, heparin-induced fibrillization, ThT fluorescence; series mostly up to 57.4 µM; activity, negative = inhibition: at the top concentration.
Summary of the method: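 Fibril formation assay: tau K18 P301L at 15 uM with trace Alexa 594 label, heparin inducer 20 uM, pH 7 sodium acetate buffer, 37 C for 6 hr; endpoint ThT signal.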
Further: nearly all actives have a fitted effect of over 55% in size.
On the % scale 0 is the no-effect control and ±100 the full control effect; potency means the concentration at half of the fitted maximal effect; tags describe the fitted curve by direction and shape.

Sequence of UniProt P10636 (P10636 whole entry, looked up): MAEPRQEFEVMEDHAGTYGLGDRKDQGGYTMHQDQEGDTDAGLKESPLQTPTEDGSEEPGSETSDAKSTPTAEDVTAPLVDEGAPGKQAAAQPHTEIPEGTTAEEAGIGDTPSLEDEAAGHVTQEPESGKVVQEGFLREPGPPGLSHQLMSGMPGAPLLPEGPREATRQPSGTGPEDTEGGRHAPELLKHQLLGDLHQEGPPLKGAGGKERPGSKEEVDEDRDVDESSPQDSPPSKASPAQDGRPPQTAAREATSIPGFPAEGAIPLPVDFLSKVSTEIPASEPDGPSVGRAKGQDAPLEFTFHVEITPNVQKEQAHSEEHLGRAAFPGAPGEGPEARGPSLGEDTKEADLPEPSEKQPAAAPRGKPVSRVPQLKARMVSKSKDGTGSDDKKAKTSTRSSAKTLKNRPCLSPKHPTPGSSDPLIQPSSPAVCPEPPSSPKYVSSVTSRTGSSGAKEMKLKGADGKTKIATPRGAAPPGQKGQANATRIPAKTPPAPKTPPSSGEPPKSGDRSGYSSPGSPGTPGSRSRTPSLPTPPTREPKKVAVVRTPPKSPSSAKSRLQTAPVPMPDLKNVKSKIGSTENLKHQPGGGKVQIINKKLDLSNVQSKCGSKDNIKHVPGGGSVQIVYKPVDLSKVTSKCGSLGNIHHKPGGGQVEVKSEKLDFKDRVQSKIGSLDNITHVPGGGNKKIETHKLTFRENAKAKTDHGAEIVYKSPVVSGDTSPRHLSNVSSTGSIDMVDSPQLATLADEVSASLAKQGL

| SMILES | Potency | activity, negative = inhibition |
| --- | --- | --- |
| COc1cccc(-c2cc(C(=O)N3CCCc4ccccc43)no2)c1 | inconclusive: 20 µM [inhibitor, partial curve] | – |
| O=C1CC(c2c(F)cccc2Cl)c2c(ccc3ccccc23)N1 (stereo not drawn) | inconclusive: 20 µM [inhibitor, partial curve] | – |
| COc1ccc(-n2c(-c3ccccc3)c[n+]3c2CCC3)cc1 | – | inactive: 9.14% |
| CCN1/C(=C/C(=S)Nc2ccccc2)Sc2ccccc21 | active: 3.55 µM | – |
| O=C(Nc1ccc2c(c1)OCO2)c1cc(-c2cccnc2)nc2ccccc12 | inconclusive: 31.6 µM [inhibitor, partial curve] | – |
| Cc1sc2c(c1C)CN(C(C)(C)C)CN2C(=O)c1ccccc1 | – | inactive: -16.7% |
| CC1=CC(C)(C)Nc2ccc(OC(=O)C(Cc3ccccc3)N3C(=O)C4CCCCC4C3=O)cc21 (stereo not drawn) | inconclusive: 6.31 µM [inhibitor, partial curve] | – |
| CS(=O)(=O)Nc1ccc([N+](=O)[O-])cc1OC1CCCCC1 | inactive and inconclusive: 39.8 µM [inhibitor, single point] | – |
| Nc1ccccc1N=Cc1ccc(-c2cccc(Cl)c2)o1 | inconclusive: 1.58 µM [inhibitor, partial curve] | – |
| Cc1ccc(NC(=O)CN2CCc3ccccc3C2)cc1F | inconclusive: 12.6 µM [inhibitor, partial curve] | – |
| COc1ccc(N=Nc2c(N)n[nH]c2N)cc1 | active: 14.1 µM | – |
| O=C(CSc1nnc(-c2cccnc2)o1)Oc1ccccc1 | inconclusive: 17.8 µM [inhibitor, partial curve] | – |
| Cc1cc(NC(c2cccnc2)c2c(C)[nH]c3ccccc23)no1 (stereo not drawn) | inconclusive: 11.2 µM [inhibitor, partial curve] | – |
| COc1ccc(O[C@H]2C=C[C@@H](c3ccccc3)O[C@@H]2CO/N=C/C[C@@H]2C=C[C@H](OC(C)=O)[C@@H](COC(C)=O)O2)cc1 | inconclusive: 39.8 µM [inhibitor, single point] | – |
| Cc1c(O)c(O)cc2c1oc1c3ccccc3oc(=O)c21 | inconclusive: 2.24 µM [inhibitor, full curve] | – |
| COc1ccc(/C=C/C(=O)NC(=S)NNC(=O)Cc2cccs2)cc1 | inconclusive: 2.82 µM [inhibitor, full curve] | – |
| Cc1nn(C(=O)c2c(F)cccc2F)c(C)c1S(=O)(=O)N1CCCCCC1 | – | inactive: -3.8% |
| CCN(C(=O)CSc1ncccc1C(=O)OC(C)C)c1cccc(C)c1 | inconclusive: 28.2 µM [inhibitor, partial curve] | – |
| O=C(/C=C/NNC(=O)c1cccc(Br)c1)c1cccc(Br)c1 | active: 14.1 µM | – |
| Nc1c(Br)cc(Br)cc1CNC1CCC(O)CC1 (stereo not drawn) | inactive | – |
| COc1cccc(C(C(=O)NCC2CCCO2)N(CC2CCCO2)C(=O)CN2C(=O)c3ccccc3S2(=O)=O)c1 (stereo not drawn) | – | inactive: 5.2% |
| CCc1ccc(S(=O)(=O)Nc2cc(SCC(=O)O)c(O)c3ccccc23)cc1 | active: 3.16 µM | – |
| CCOC(=O)c1ccc(N2CCN(c3cc(C)ccc3C)CC2)c(NC(=O)Nc2ccc(Cl)cc2)c1 | – | inactive: 3.03% |
| COc1ccc(C)cc1NC(=O)c1oc2ccc(S(=O)(=O)N3CCC4(CC3)OCCO4)cc2c1C | – | inactive: -4.04% |
| COC(=O)c1ccc(COc2ccc3c(C)c(C)c(=O)oc3c2C)o1 | inconclusive: 1 µM [inhibitor, partial curve] | – |

| SMILES | Potency | activity, negative = inhibition |
| --- | --- | --- |
| Cc1nc2c(Br)c3nc(C(F)(F)F)[nH]c3c(Br)c2[nH]1 | inconclusive: 35.5 µM [inhibitor, single point] | – |
| Cc1ccc(S(=O)(=O)N(CC(=O)Nc2ccccc2C(=O)O)c2ccc(Cl)cc2)cc1 | inconclusive: 39.8 µM [inhibitor, single point] | – |
| COc1cc2oc(=O)c3c4c(cc5ccc(c1CCN(C)C)c2c53)OCO4 | – | inactive: -15.1% |
| Cc1noc(C)c1COC(=O)c1cc2c3ccccc3n(C)c2s1 | inconclusive: 12.6 µM [inhibitor, partial curve] | – |
| FC(F)(F)c1cccnc1Oc1ccc(C2=NCCS2)cc1 | inconclusive: 12.6 µM [inhibitor, partial curve] | – |
| O=C(NCc1ccco1)c1sc2cc(Cl)ccc2c1Cl | inconclusive: 22.4 µM [inhibitor, partial curve] | – |
| Cc1ccc(OCCCNCCO)c(Br)c1 | – | inactive: -13.2% |
| CSc1nc2ccccc2n1Cc1c(Cl)cccc1Cl | inconclusive: 39.8 µM [inhibitor, single point] | – |
| O=C(O)c1ccc(-n2c(-c3ccccc3)n[nH]c2=S)cc1 | – | inactive: 1.14% |
| CSc1ccccc1NC(=O)c1noc2c1CCC2 | inconclusive: 31.6 µM [inhibitor, partial curve] | – |
| CCOC(=O)N/N=C(/C)c1ccc(N2C(=O)C3CCCCC3C2=O)cc1 (stereo not drawn) | inconclusive: 7.94 µM [inhibitor, partial curve, poor fit] | – |
| CCOC(=O)c1c(NC(=O)c2ccco2)sc2c1CCCCC2 | inconclusive: 20 µM [inhibitor, partial curve] | – |
| CCCN(CCC)C(=O)c1nn(C)c2c1CSc1ccc(C)cc1-2 | inconclusive: 39.8 µM [inhibitor, single point] | – |
| CC(C)Cc1nc(N2CCN(C(=O)c3ccco3)CC2)c(C#N)c2c1CCC2 | inconclusive: 28.2 µM [inhibitor, partial curve, poor fit] | – |
| COc1cc2[nH]c3c(N4CCN(c5ccccn5)CC4)ncnc3c2cc1OC | inconclusive: 14.1 µM [inhibitor, partial curve] | – |
| COc1ccc(-c2nc3c4ccccc4ccn3c2CN2CCOCC2)cc1OC | inconclusive: 14.1 µM [inhibitor, partial curve] | – |
| CC(C)c1ccc(/C=C(/C#N)c2nnc(NC(=O)c3ccccc3)s2)cc1 | inconclusive: 20 µM [inhibitor, partial curve] | – |
| O=C(COc1ccccc1)Nc1ccc(S(=O)(=O)NCc2ccco2)cc1 | – | inactive: -16.8% |
| Cc1ccc2c(c1)c1nc3ccccc3nc1n2CCN1CCOCC1 | inconclusive: 3.98 µM [inhibitor, full curve] | – |
| COc1ccccc1CNc1ncnc2c1nnn2Cc1ccccc1 | inconclusive: 20 µM [inhibitor, single point] | – |
| COc1ccccc1/C=C/c1nc(C#N)c(NCC(C)C)o1 | inconclusive: 3.98 µM [inhibitor, partial curve] | – |
| Cc1no[n+]([O-])c1COc1cccc(/C=N/Nc2nncn2N)c1 | inconclusive: 28.2 µM [inhibitor, partial curve] | – |
| CCOc1ccccc1CNC(=O)c1cnc2sc(N(CC)CC)nn2c1=O | – | inactive: -8.84% |
| COC(=O)C(N)CS (stereo not drawn) | active: 17.8 µM | – |
| CC(C)CN(CCNC(=O)c1cc(-c2cccs2)nc2ccccc12)CC(C)C | – | inactive: -2.61% |

| SMILES | Potency | activity, negative = inhibition |
| --- | --- | --- |
| CSc1nc2c(c(=O)[nH]c(=O)n2C)n1C/C=C(\C)Cl | – | inactive: -15.8% |
| CCC(C)Oc1ccc(/C=C/c2[nH]c(=O)[nH]c(=O)c2[N+](=O)[O-])cc1OC (stereo not drawn) | – | inactive: -0.471% |
| Clc1cccc(C2=NC(c3cccs3)=Nc3ccc(Br)cc3N2)c1 | inconclusive: 15.8 µM [inhibitor, single point] | – |
| CCOC(=O)c1cc2c(ccn2C)n1Cc1ccc(Cl)cc1 | inconclusive: 17.8 µM [inhibitor, partial curve] | – |
| COc1ccc(Nc2ccc(OC)cc2)cc1 | active: 10 µM | – |
| CCc1ccc(NC(=O)CN2C(=O)c3ccccc3Sc3ccc(C(=O)N4CCCC4)cc32)cc1 | – | inactive: -2.39% |
| COc1ccc(CNC(=O)c2sc3nc4n(c(=O)c3c2C)CCCCC4)cc1 | – | inactive: -14.6% |
| CCOC(=O)c1cnc2ccc(C)cc2c1Sc1ccccc1 | inconclusive: 15.8 µM [inhibitor, partial curve] | – |
| CCN(CC)CCOC(=O)c1ccc(NC(=O)c2cc3c(s2)-c2ccccc2OC3)cc1 | inconclusive: 39.8 µM [activator, single point] | – |
| O=C(/C(=C\c1ccccc1)c1nc2ccccc2[nH]1)c1ccc(Cl)cc1 | active: 22.4 µM | – |
| O=C(Nc1ccc(-c2nc3ccccc3[nH]2)cc1)c1cccc(N2C(=O)CCC2=O)c1 | inconclusive: 2.51 µM [activator, full curve] | – |
| CN(C)CC(C)(C)CNC(=O)C1CCN(Cc2ccccc2O)CC1 | – | inactive: -11.5% |
| CCOC(=O)c1cc(-c2ccccc2)n(CCCC(=O)Nc2ccccc2C)c1C | – | inactive: -5.62% |
| O=C1CC(=O)N(c2cccc(F)c2)N1 | inconclusive: 11.2 µM [inhibitor, partial curve] | – |
| Cc1ccc(NC(=S)N2CCCC(c3nc4ccc(C)cc4[nH]3)C2)c(C)c1 (stereo not drawn) | – | inactive: 10.1% |
| O=C(/C=C/c1ccco1)Nc1cccc2cccnc12 | inconclusive: 28.2 µM [inhibitor, single point] | – |
| O=C(Nc1cccc(N2CCCC2)c1)c1cccs1 | inconclusive: 11.2 µM [inhibitor, partial curve] | – |
| O=C(COc1ccc2ccccc2c1)Nc1nc2ccccc2[nH]1 | inconclusive: 3.55 µM [inhibitor, full curve, poor fit] | – |
| c1ccc(Cn2c(-c3cncs3)nc3ccccc32)cc1 | – | inactive: -6.37% |
| CN(C)CC(CCC(CN(C)C)C(=O)c1ccccc1)C(=O)c1ccccc1 (stereo not drawn) | – | inactive: 7.3% |
| O=c1cc(CSc2nnc(-c3cccs3)n2Cc2ccccc2)nc2sc3ccccc3n12 | inconclusive: 25.1 µM [inhibitor, single point] | – |
| CCc1ccc(Nc2ccc(C(N)=O)cc2[N+](=O)[O-])cc1 | active: 12.6 µM | – |
| C/C(=N\Nc1cc(C)nc(-c2ccccc2O)n1)c1ccccc1O | inconclusive: 11.2 µM [inhibitor, partial curve] | – |
